Experimental data from publication PMC4336329 (PLoS ONE, 2015).
About 2,200 (0.71%) of roughly 310,000 compounds showed an effect of 50% or more. The effect is printed as a negative number. This is one part of the list.

Each compound was assayed against human ether-à-go-go-related gene (hERG) potassium channel (human, UniProt Q12809) (assay: primary screen, population patch clamp on CHO cells stably expressing hERG).
Sequence of human ether-à-go-go-related gene (hERG) potassium channel (Q12809 whole entry, looked up): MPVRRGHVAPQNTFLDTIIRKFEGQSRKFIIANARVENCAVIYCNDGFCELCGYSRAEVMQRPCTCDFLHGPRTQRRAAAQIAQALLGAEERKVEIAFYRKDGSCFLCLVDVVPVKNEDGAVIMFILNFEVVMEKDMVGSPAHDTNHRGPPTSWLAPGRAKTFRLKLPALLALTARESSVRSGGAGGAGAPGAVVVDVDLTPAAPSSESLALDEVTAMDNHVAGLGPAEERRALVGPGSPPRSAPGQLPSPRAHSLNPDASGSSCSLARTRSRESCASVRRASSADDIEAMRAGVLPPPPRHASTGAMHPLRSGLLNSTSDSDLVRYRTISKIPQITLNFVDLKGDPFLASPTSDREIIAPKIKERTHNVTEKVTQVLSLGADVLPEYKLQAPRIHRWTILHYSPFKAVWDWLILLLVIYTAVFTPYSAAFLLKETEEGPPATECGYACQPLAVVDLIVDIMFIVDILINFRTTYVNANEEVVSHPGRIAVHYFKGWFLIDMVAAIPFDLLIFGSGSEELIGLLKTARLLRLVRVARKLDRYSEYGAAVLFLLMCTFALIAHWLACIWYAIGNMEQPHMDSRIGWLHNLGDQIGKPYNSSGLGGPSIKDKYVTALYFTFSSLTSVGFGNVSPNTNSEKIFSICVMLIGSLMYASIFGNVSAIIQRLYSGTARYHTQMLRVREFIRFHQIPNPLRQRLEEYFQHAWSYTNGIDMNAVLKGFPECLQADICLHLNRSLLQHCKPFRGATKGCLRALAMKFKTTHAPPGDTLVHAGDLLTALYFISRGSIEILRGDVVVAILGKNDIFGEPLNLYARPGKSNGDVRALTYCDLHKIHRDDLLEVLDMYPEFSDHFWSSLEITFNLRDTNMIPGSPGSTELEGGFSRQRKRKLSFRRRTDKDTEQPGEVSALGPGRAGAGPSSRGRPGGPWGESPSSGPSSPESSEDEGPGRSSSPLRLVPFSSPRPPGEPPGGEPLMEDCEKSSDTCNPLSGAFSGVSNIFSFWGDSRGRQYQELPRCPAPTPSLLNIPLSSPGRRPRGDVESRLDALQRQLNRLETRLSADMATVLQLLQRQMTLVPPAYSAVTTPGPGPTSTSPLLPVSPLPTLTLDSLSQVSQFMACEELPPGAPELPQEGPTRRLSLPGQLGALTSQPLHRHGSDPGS

SMILES	hERG current change (%, negative = inhibition) at 1uM
Clc1ccc(-c2noc3c2-c2nc(Cc4cccc5ccccc45)sc2CC3)cc1	4.87%
COc1ccc(NC(=O)CCCNC(=O)Cn2cnc3sc4c(c3c2=O)CCCC4)c(OC)c1	7.59%
CCOC(=O)N1CCN(c2c(NCCCN(CC)c3cccc(C)c3)c(=O)c2=O)CC1	1.77%
Cc1ccccc1/[N+]([O-])=C/c1ccncc1	13.6%
CC(C)c1ccc(NCCC(=O)c2ccc(Br)cc2)cc1	7.33%
COc1ccc(C(=O)COC(=O)c2cc(C)no2)c(OC)c1	10.4%
Cc1cc(C(=O)NNC(=O)c2ccc(Cl)cc2)c2ccccc2n1	5.97%
CC(C)N(C(=O)COC(=O)c1ccccc1C(=O)N1CCN(c2ccc(F)cc2)CC1)C(C)C	-9.42%
CCC(=O)NCCc1nc2ccccc2n1Cc1ccccc1	12.6%
CCOc1ccc(S(=O)(=O)N2CCCCC2)cc1NC(=O)C1COc2ccccc2O1 (centres unmarked)	14.1%
CCOc1ccc(NC(=O)Cn2nnc(C(=O)NCc3ccc4c(c3)OCO4)c2N)cc1	10.1%
Cc1nn(CC(O)c2ccccc2)c(C)c1Br (centres unmarked)	8.19%
Cc1ccc(NC(=O)C2C3C=CC4(O3)C2C(=O)N(CCCN2CCCCC2)C4C(=O)NC2CCCCC2)cc1Cl (centres unmarked)	12.9%
CCCCCCCCS(=O)C1CS(=O)(=O)CC1O (centres unmarked)	7.4%
CCCC(=O)Nc1nc2c(C)c(Cl)ccc2s1	6.64%
COc1ccc(OC)c(C(Nc2ccccc2)P(=O)(OC(C)C)OC(C)C)c1 (centres unmarked)	4.04%
Cc1nc(Nc2ccccc2Cl)sc1C(=O)Nc1ccccc1	4.06%
Cc1cccc(C)c1NC(=S)N(CCN(C)C)Cc1cccs1	-8.98%
CCCCN(CC)CCCNC(=O)Cn1nc(Cc2cccnc2)c2ccccc2c1=O	17.1%
O=C(Cc1cccs1)NCc1ccc(F)cc1	-1.33%
Cc1nn(CC(=O)NNC(=S)Nc2ccccc2)c(C)c1[N+](=O)[O-]	3.31%
COc1ccccc1C(=O)C1CCCN(C(=O)c2cccc(Cn3cccn3)c2)C1 (centres unmarked)	0.936%

SMILES	hERG current change (%, negative = inhibition) at 1uM
CSc1nc(C)cc(OCC(=O)n2nc(C)cc2C)n1	6.6%
O=[N+]([O-])c1ccc(N/N=C/c2ccccc2)c(F)c1	11.3%
O=C(O)c1ccc(N2C(=O)CSC2c2cccc([N+](=O)[O-])c2)cc1 (centres unmarked)	13.3%
Cc1cc(C)nc(Nc2nc(-c3ccccc3)cs2)n1	14.7%
O=C1COc2ccc(C(=O)C[n+]3cccc(O)c3)cc2N1.[Cl-]	7.37%
CCn1ncc(C2=NOC(C(=O)Nc3ccc4c(c3)OCO4)C2)c1C (centres unmarked)	5.18%
COc1ccc(-n2nnc3c(=O)n(CC(=O)Nc4cc(C)on4)cnc32)cc1OC	7.43%
O=C(COc1ccccc1Cl)N1CCN(c2ccc([N+](=O)[O-])c(N3CCCCC3)c2)CC1	0.717%
Cc1cc(C)c(NC(=S)N(C)C)c(C)c1	9.4%
C/C(N)=C(/C#N)C(=O)COC(=O)CC1CCCC1	6.01%
Cc1ccc(S(=O)(=O)NCCCOC(=O)Nc2ccncc2)cc1	2.07%
COc1ccc(-n2c(-c3cnccn3)n[nH]c2=S)cc1	9.44%
CC(C)c1cc(=O)[nH]c(N2CCN(Cc3ccc4c(c3)OCO4)CC2)n1	8.53%
Nc1ncnc2c1ncn2[C@H]1CC[C@@H](CO)O1	14.3%
O=C(O)CCc1ccc(-c2cccs2)n1NC(=O)c1ccccc1Br	2.9%
COCCNC(=O)c1cc2sc3ccccc3c2s1	-3.94%
O=C(C1=C[C@@H](c2csc3ccccc23)C[C@@H](OCc2ccc(CO)cc2)O1)N1CCOCC1	-6.94%
CC(C)(C)C(=O)C(CO)(Oc1ccc(Cl)cc1)n1cncn1 (centres unmarked)	16.1%
Cc1ncc(CN2CCN(C3CCCC3)C(CCO)C2)s1 (centres unmarked)	8.7%
Cc1cc(O)cc(=O)n1Cc1ccccc1	12.6%
COc1ccc(-c2cc(C(=O)NCCCN3CCCC3=O)c3ccccc3n2)cc1	10%
Cc1n[nH]c(=O)n1-c1cccc(C(F)(F)F)c1	10.6%
